PubChem BioAssay AID504845 (National Center for Advancing Translational Sciences (NCATS), 2011)
“And” between values parts separate entries of the source, which are not always exact repeats. Equal entries are not always repeated. The campaign covered roughly 390,000 compounds. About 150 (0.038%) were called active. Inconclusive results, whose numbers are uncertain, are shown with a selection of clear calls. Calls come from the whole dose curve; as a rule, active = well fitted inhibition curve with a large enough effect; inconclusive = small, poorly fitted or top-dose-only effect; inactive = no such curve, though single readings can be large or run the other way. Potencies of inconclusive entries are doubtful fits and often do not repeat.

biological target: Regulator of G-protein signaling 4 (Homo sapiens) (UniProt P49798); assay: Inhibitors of Regulator of G Protein Signaling (RGS) 4: qHTS; conditions: Transcreener GDP fluorescence polarization, RGS4-accelerated GTP hydrolysis; series mostly up to 114 µM; activity change, negative = inhibition: at the top concentration; note: nearly all actives have a fitted effect of over 75% in size
Sequence of UniProt P49798 (P49798 whole entry, looked up): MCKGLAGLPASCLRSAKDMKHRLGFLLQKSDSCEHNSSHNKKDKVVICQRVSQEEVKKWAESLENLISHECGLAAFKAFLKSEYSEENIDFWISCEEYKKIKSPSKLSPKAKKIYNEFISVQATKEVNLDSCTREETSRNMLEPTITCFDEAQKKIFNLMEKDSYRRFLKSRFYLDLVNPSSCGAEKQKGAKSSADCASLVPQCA
In short: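 MLSMR compounds (23 nl, pin-transferred) preincubated 10 min at room temperature with a 500nM (2x) first reagent, then RGS4 at 900nM (2x) plus Transcreener GDP mix added; fluorescence polarization (620/688 nm) read before and after 90 min at 30 °C.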
% is set by controls: 0 for no effect and ±100 for the full control effect; potency is the fitted concentration of half-maximal effect; tags give direction and shape of the fitted curve.

| Compound | Potency | activity change, negative = inhibition |
| --- | --- | --- |
| Cc1ccc(-c2cc(-c3ccccc3)c(C#N)c(SCC(O)CS(=O)(=O)Cc3ccccc3)n2)cc1 (stereo unspecified) | inconclusive: 100 µM [inhibitor, single point] | – |
| COc1ccc(/C=N/OCC(=O)N=Nc2c(O)[nH]c3ccc(Br)cc23)cc1OC | inconclusive: 56.2 µM [inhibitor, partial curve, poor fit] | – |
| S=c1[nH]nc(-c2ccco2)n1C1CCCCC1 | inconclusive: 100 µM [inhibitor, single point] | – |
| Nc1sc2c(c1C(=O)NC1CC1)CCCC2 | inconclusive: 8.91 µM [inhibitor, full curve, poor fit] | – |
| O=C(/C=C/c1ccc(Cl)cc1Cl)c1cccnc1 | inconclusive: 79.4 µM [inhibitor, partial curve, poor fit] | – |
| COC(=O)c1ccccc1NC(=O)CCCn1c(=O)c2cccn2c2cccnc21 | – | inactive: 19.7% |
| CCc1ccccc1N1CSC2=C(C#N)C(c3cc(OC)c(OC)cc3OC)CC(=O)N2C1 (stereo unspecified) | inconclusive: 79.4 µM [inhibitor, partial curve, poor fit] | – |
| Cc1cccc(S(=O)(=O)c2c(N)n(Cc3ccco3)c3nc4ccccc4nc23)c1 | inconclusive: 89.1 µM [inhibitor, single point] | – |
| O=C(Nc1ccc(N2CCCC2)cc1)C(Cl)c1ccccc1 (stereo unspecified) | inconclusive: 28.2 µM [inhibitor, full curve, poor fit] | – |
| CN1\C(=C/C=C/C=C/C=[N+](C)C)C(C)(C)c2ccccc21 | – | inactive: -60.7% [at 56.9 µM] |
| CC(=O)SC(C[N+](=O)[O-])c1cn(C(C)=O)c2ccccc12 (stereo unspecified) | inconclusive: 89.1 µM [inhibitor, partial curve, poor fit] | – |
| NC(=O)[C@H](Cc1cc2ccccc2s1)NC(=O)[C@@H]1CC2(CC(c3cccc(NC(=O)[C@@H]4CCC(=O)N4)c3)=NO2)CN1C(=O)/C=C/Sc1ccccc1 (stereo partly specified) | inconclusive: 56.2 µM [inhibitor, partial curve, poor fit] | – |
| CCC12CN3CCN(CC(C3)/C1=N\NC(=O)c1ccc(F)cc1)C2 | inconclusive: 44.7 µM [inhibitor, partial curve, poor fit] | – |
| Cc1ccc(CCNC(=O)C2CC(c3cc(C(F)(F)F)cc(C(F)(F)F)c3)=NO2)cc1 (stereo unspecified) | – | inactive: 9.26% |
| Cc1ccc(C)c(C(=O)NC2CC(C)(C)NC(C)(C)C2)c1 | – | inactive: 13.6% |
| Cc1cccn2c(=O)c3cc(C(=O)NCc4ccco4)c(=N)n(CCOCCO)c3nc12 | inconclusive: 89.1 µM [inhibitor, single point] | – |
| Cc1cccc(NC(=O)CCS(=O)(=O)c2cc(Br)cc3c2N(C(=O)C2CC2)CC3)c1 | – | inactive: -22.4% |
| COc1ccc(OC)c(S(=O)(=O)Nc2cccc(-c3ccc(N4CCCCC4)nn3)c2)c1 | inconclusive: 22.4 µM [inhibitor, full curve, poor fit] | – |
| CCOc1cc(/C=C\[N+](=O)[O-])ccc1OCC(=O)Nc1ccccc1C | – | inactive: -68% |
| COc1ccc2c(c1)NC(C)(C)C=C2C | inconclusive: 56.2 µM [inhibitor, partial curve, poor fit] | – |
| CN1C(=O)C(N=Nc2ccc([N+](=O)[O-])cc2)SC1=S (stereo unspecified) | inconclusive: 56.2 µM [inhibitor, partial curve, poor fit] | – |

| Compound | Potency | activity change, negative = inhibition |
| --- | --- | --- |
| COc1ccc(C(=O)Nc2cc(C(=O)c3ccccc3)c(C)oc2=O)cc1 | inconclusive: 79.4 µM [inhibitor, partial curve, poor fit] | – |
| O=C(N/N=C/c1cccc(Oc2ccccc2)c1)c1ccncc1 | inconclusive: 39.8 µM [inhibitor, partial curve, poor fit] | – |
| CCN(c1ccccc1)S(=O)(=O)c1c(-c2ccc(C)cc2)csc1C(=O)OC | – | inactive: -5.02% |
| O=C(CCCN1C(=O)S/C(=C/C=C/c2ccccc2)C1=O)Nc1ccc(C(=O)O)cc1 | inconclusive: 17.8 µM [inhibitor, full curve, poor fit] | – |
| Cc1ccnc(NC(=O)CCC(=O)N(CC(=O)NC2CCCCC2)c2cccc(C)c2C)c1 | inconclusive: 100 µM [inhibitor, partial curve, poor fit] | – |
| CCc1cccc(C)c1NC(=O)Cn1nc(C)c2nn(-c3ccc(Cl)cc3)c(C)c2c1=O | inconclusive: 56.2 µM [inhibitor, partial curve, poor fit] | – |
| Cc1ccc(OCC(=O)Nc2ccccc2OCc2cc(=O)n3ccccc3n2)cc1C | – | inactive: 3.53% |
| COc1ccc2c(C)cc3n[nH]c(=S)n3c2c1 | inconclusive: 28.2 µM [inhibitor, full curve, poor fit] | – |
| CCc1cccc(C)c1NC(=O)CSc1nnc(CCCOc2ccc(Cl)cc2Cl)n1C | inconclusive: 89.1 µM [inhibitor, single point] | – |
| CC1CCc2nn(CC(=O)NCc3ccco3)cc2C1 (stereo unspecified) | inconclusive: 79.4 µM [inhibitor, partial curve, poor fit] | – |
| O=C(Nc1cccc(F)c1)c1ccc2c(c1)N(Cc1ccccc1)C(=O)c1ccccc1S2(=O)=O | – | inactive: -18.6% |
| CCN1CCN(C(=S)c2ccc(OCC(=O)NCc3ccccc3)cc2)CC1 | inconclusive: 79.4 µM [inhibitor, partial curve, poor fit] | – |
| CC(C)Oc1cccc(C(=O)C2CCCN(C(=O)c3cc(C4CC4)[nH]n3)C2)c1 (stereo unspecified) | – | inactive: 17.4% |
| COc1ccc(Cl)cc1NC(=S)N(Cc1ccc(C(=O)O)cc1)Cc1ccc(OC)c(OC)c1 | inconclusive: 89.1 µM [inhibitor, single point] | – |
| COc1ccc(Cl)cc1NC(=O)N1CCN(Cc2cc(=O)n3nc(-c4ccccc4)sc3n2)CC1 | – | inactive: -11.2% |
| CCNc1nc(OC)nc(N2CCC(Cc3ccccc3)CC2)n1 | inconclusive: 89.1 µM [inhibitor, single point] | – |
| N#Cc1c(-c2ccncc2)c2c([nH]c1=S)CCCC2 | inconclusive: 79.4 µM [inhibitor, partial curve, poor fit] | – |
| OCC1O[C@H]([S-])[C@H](O)[C@@H](O)[C@@H]1O.[Au+] (stereo partly specified) | active: 0.597 µM | – |
| CCC(C)C(=O)Nc1nc(C)c(-c2csc(Nc3ccc(Cl)cc3)n2)s1 (stereo unspecified) | inconclusive: 17.8 µM [inhibitor, full curve, poor fit] | – |
| CC(C)N1CN=C(Nc2nc3ccccc3o2)NC1 | – | inactive: -11.6% |
| O=C(O)c1cc(N(Cc2ccccc2O)Cc2ccccc2O)ccc1O | inconclusive: 70.8 µM [inhibitor, single point] | – |

| Compound | Potency | activity change, negative = inhibition |
| --- | --- | --- |
| CCCCC1=CC2=C(c3ccco3)C(=O)C(C)(OC(=O)c3ccc(OC)cc3)C(=O)C2=CN1Cc1ccco1 (stereo unspecified) | inconclusive: 50.1 µM [inhibitor, partial curve, poor fit] | – |
| CC(NC(=O)COC(=O)Cc1ccsc1)C1CC2CCC1C2 (stereo unspecified) | – | inactive: 18.6% |
| CN(C)S(=O)(=O)Nc1cc(Cl)cc(Cl)c1 | inconclusive: 56.2 µM [inhibitor, partial curve, poor fit] | – |
| O=C(COC(=O)c1c2c(nc3ccccc13)/C(=C\c1ccco1)CC2)NC1CCCC1 | inconclusive: 35.5 µM [inhibitor, partial curve, poor fit] | – |
| CC(C)NC[C@H](O)c1ccc(O)c(O)c1 | inconclusive: 37.7 µM [inhibitor, single point] | – |
| COc1ccc(C(=O)CC2(O)C(=O)N(Cc3cccc(C(F)(F)F)c3)c3ccccc32)cc1 (stereo unspecified) | – | inactive: 10.6% |
| CNC(=O)/C(C#N)=C\c1ccc(CNS(=O)(=O)c2ccc(Cl)cc2)o1 | inconclusive: 56.2 µM [inhibitor, partial curve, poor fit] | – |
| CC(C)CC1=NN2C(=N)/C(=C\c3coc4ccccc4c3=O)C(=O)N=C2S1 | inconclusive: 89.1 µM [inhibitor, single point] | – |
| CC(=O)c1ccc(-n2c(CCC(=O)O)ccc2-c2cccs2)cc1 | inconclusive: 39.8 µM [inhibitor, partial curve, poor fit] and inconclusive: 56.2 µM [inhibitor, partial curve, poor fit] | – |
| CCn1cc(C(=O)NCc2cccc(F)c2)c(=O)c2cc(F)c(N3CCN(C(=O)c4ccco4)CC3)cc21 | inconclusive: 79.4 µM [inhibitor, partial curve, poor fit] | – |
| CC(=O)c1ccc(-n2nnnc2SCC(=O)NC2CCCCC2)cc1 | inconclusive: 50.1 µM [inhibitor, partial curve, poor fit] | – |
| C/C(CC(C)(C)C1CCCCC1)=N\NC(N)=S | inconclusive: 50.1 µM [inhibitor, partial curve, poor fit] | – |
| O=C(NC(=S)Nc1ccc2c(c1)OCO2)c1ccccc1 | inconclusive: 79.4 µM [inhibitor, partial curve, poor fit] | – |
| Cc1ccc(-c2ccccc2NC(=O)CS(=O)CC(=O)Nc2ccc(C)c(Cl)c2)o1 (stereo unspecified) | inconclusive: 56.2 µM [inhibitor, partial curve, poor fit] | – |
| C=C1C(=O)C=C2CN(C(=O)c3ccccc3)[C@@](Cc3ccc(F)cc3)(C(=O)OC)[C@@H]12 | inconclusive: 50.1 µM [inhibitor, partial curve, poor fit] | – |
| Cc1ccc(NC(=O)C2Cc3ccccc3C(=O)O2)cc1 (stereo unspecified) | – | inactive: 6.18% |
| Cc1ccc(CSc2nnc(-c3ccco3)o2)cc1 | – | inactive: 7.18% |
| CC(=O)C1=C(c2ccccc2)NC(=S)NC1c1cc(Cl)c(OC(C)C)c(Cl)c1 (stereo unspecified) | inconclusive: 35.5 µM [inhibitor, full curve, poor fit] | – |
| O=C(OCC(=O)N1CCCCCC1)c1ccc(Cl)c(S(=O)(=O)N2CCCC2)c1 | inconclusive: 28.2 µM [inhibitor, full curve, poor fit] | – |
